Results as given in paper PMC6606709, “Granzyme A Stimulates pDCs to Promote Adaptive Immunity via Induction of Type I IFN” (Frontiers in Immunology, 2019).
Results are given in words; binding and its absence hold for the method and conditions named. Binding seen in cells or lysates may run through a third protein. Some entries that bind do so weakly or less than the wild type. Sequences can lack the tags named with a protein.

T1: mouse TLR9-3xFLAG (mouse) (UniProt Q9EQU3)
T1 sequence: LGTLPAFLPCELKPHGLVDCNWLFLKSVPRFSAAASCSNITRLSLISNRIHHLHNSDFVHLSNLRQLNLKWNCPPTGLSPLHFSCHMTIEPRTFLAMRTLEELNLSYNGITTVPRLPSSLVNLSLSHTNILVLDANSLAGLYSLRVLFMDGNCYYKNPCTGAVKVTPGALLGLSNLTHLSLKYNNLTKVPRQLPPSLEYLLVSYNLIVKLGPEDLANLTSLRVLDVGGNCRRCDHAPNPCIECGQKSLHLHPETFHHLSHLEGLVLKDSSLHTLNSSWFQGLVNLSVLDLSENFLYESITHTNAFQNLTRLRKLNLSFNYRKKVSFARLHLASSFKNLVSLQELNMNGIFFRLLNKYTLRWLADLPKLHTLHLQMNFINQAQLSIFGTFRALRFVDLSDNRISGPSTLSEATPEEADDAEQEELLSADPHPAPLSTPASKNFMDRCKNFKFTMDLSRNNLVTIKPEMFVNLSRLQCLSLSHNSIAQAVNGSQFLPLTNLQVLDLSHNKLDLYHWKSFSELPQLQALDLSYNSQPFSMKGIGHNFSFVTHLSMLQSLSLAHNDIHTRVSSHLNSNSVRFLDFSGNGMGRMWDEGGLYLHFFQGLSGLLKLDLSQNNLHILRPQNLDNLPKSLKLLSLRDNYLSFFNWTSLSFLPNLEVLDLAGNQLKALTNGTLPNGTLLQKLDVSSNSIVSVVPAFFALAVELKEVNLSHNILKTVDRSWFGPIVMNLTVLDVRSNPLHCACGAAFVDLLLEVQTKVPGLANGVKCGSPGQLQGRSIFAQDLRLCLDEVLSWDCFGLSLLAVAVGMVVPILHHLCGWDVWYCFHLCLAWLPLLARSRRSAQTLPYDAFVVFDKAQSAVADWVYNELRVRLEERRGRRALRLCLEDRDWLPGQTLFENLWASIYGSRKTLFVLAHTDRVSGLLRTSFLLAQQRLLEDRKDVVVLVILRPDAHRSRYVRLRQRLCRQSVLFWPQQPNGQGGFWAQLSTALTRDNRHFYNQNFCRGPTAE

T2: endogenous TLR9 of mouse FL-DCs (mouse (endogenous in FL-DCs)) (UniProt Q9EQU3)
T2 sequence: T1 sequence

B1: GzmA-cMyc, processed form of mouse granzyme A (exon 2-5, Ile29-Val260) (enzyme, UniProt P11032 29-260)
chain: IIGGDTVVPHSRPYMALLKLSSNTICAGALIEKNWVLTAAHCNVGKRSKFILGAHSINKEPEQQILTVKKAFPYPCYDEYTREGDLQLVRLKKKATVNRNVAILHLPKKGDDVKPGTRCRVAGWGRFGNKSAPSETLREVNITVIDRKICNDEKHYNFHPVIGLNMICAGDLRGGKDSCNGDSGSPLLCDGILRGITSFGGEKCGDRRWPGVYTFLSDKHLNWIKKIMKGSV
B2: GzmA (exons 2-3) (Ile29-Arg118)-cMyc (domain or fragment, UniProt P11032 29-118)
chain: IIGGDTVVPHSRPYMALLKLSSNTICAGALIEKNWVLTAAHCNVGKRSKFILGAHSINKEPEQQILTVKKAFPYPCYDEYTREGDLQLVR
B3: GzmA (exons 4-5) (Leu119-Val260)-cMyc (domain or fragment, UniProt P11032 119-260)
chain: LKKKATVNRNVAILHLPKKGDDVKPGTRCRVAGWGRFGNKSAPSETLREVNITVIDRKICNDEKHYNFHPVIGLNMICAGDLRGGKDSCNGDSGSPLLCDGILRGITSFGGEKCGDRRWPGVYTFLSDKHLNWIKKIMKGSV
B4: recombinant granzyme A (GzmA), mouse, residues 29-260, histidine-tagged (enzyme, UniProt P11032 29-260, looked up)
chain: B1 chain
notes: mouse granzyme A, residues 29-260; also called recombinant GzmA
B5: GzmA (exon 3-4) (Gly73-Asn208)-cMyc (domain or fragment, UniProt P11032 73-208)
chain: GKRSKFILGAHSINKEPEQQILTVKKAFPYPCYDEYTREGDLQLVRLKKKATVNRNVAILHLPKKGDDVKPGTRCRVAGWGRFGNKSAPSETLREVNITVIDRKICNDEKHYNFHPVIGLNMICAGDLRGGKDSCN

Experiments:
[1] = biological target: T1, mouse TLR9-3xFLAG (mouse); assay: co-IP; HEK293T co-transfected with mTLR9-3xFlag and gzmA-cMyc; lysis in 20 mmol/L Tris HCl pH 7.4, 150 mM NaCl, 1% NP40; IP with anti-FLAG M2, blot with anti-Myc; 4°C
[2] = biological target: T2, endogenous TLR9 of mouse FL-DCs (mouse (endogenous in FL-DCs)); assay: co-IP; primary FL-DCs treated with 3 μg/ml recombinant GzmA for 8 h, then lysed; IP with anti-TLR9 (5G5), blot with anti-TLR9 or anti-GzmA; 4°C; only the binder purified

Binder	binding [1]	binding [2]
B1	binds	
B2	binds	
B3	binds	
B4		binds
B5	no binding	
